The values that follow come from the supplement of paper PMC11417369.

± gives the standard deviation of the averaged measurements. The list shows a part of the results.

For the assay, the system named is PfAP2-G AP2 domain (GST-tagged). Put plainly: gcPBM binding intensity (ln(normalized median fluorescence intensity)); higher = stronger DNA binding. In outline:
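Using an Agilent 4 × 180k array, primer-extended double-stranded 36-bp intergenic genomic probes and negative controls were exposed for 1 h to GST-fused P. falciparum DNA-binding domains expressed in E. coli. Binding was carried out in 1× PBS with 1% milk, 0.2 mg/ml BSA, 0.5% salmon testes DNA and 0.03% Triton X-100, and protein was detected with Alexa488 anti-GST antibody and a 488 nm scan. Binding intensity is the highest Masliner-normalised natural-log median intensity across replicate spots of either probe orientation.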
As for “CATATAAAGATATGAACACACAAAAAGAATATTTCC [CACACA_site6811]”, the “gcPBM binding intensity (ln)” value amounted to 10.26 ± 0.042.
Under “AATAATAAAAAATACACACACATATAAATATATTAC [CACACA_site7597]” stands 9.875 ± 0.092.
Under “TTATATTCTAGAGACACATGCGATTTTTTATTTTAT [TGCATGCA_site649]” stands 9.94 ± 0.17; under “TGGAATAATCCGCGTACACACATATATATATTAAGA [CACACA_site4253]”, 11.6 ± 0.87.
As to “GTTACTATGATTAATGCATGCAAATACCAAAAAAAA [TGCATGCA_site590]”, the “gcPBM binding intensity (ln)” value is 10.2 ± 0.2.
Under “TATACCACACGATATACACACTTGTAGACATCTTTT [CACACA_site6232]” stands 10.07 ± 0.028.
Under “AATAAAAATAGGAATACGCACACGATGATTAATTTA [CACACA_site1836]” stands 10.1.
In the case of “AATTAACCCTAATTTTGTACATATTCCTTTTCTCAT [XGTACX_site46]” it was 10.8 ± 0.14; in that of “AATTAAAATTTTTGAAGTACACTCAAAATAAGTTAT [XGTACX_site4490]”, 11.5 ± 0.95; in that of “TCCCTTCATCTTTTATGTACTAAAAAATTGAATAAT [XGTACX_site2172]”, 11.1 ± 0.78.
As for “TAATACGAATGAGGCACACACCTAGTATACATGCTT [CACACA_site6438]”, the “gcPBM binding intensity (ln)” value was 10.005 ± 0.007.
Under “AAAAAAAAATTTAAGGGTACATACAAATATATATAT [XGTACX_site5078]” stands 11.2 ± 1.1.
In the case of “AAAATAAAAAAAAACACACACATACAAGCATATATA [CACACA_site1585]” it was 9.91 ± 0.12.
Under AATTAATGGCTAAAGGTGCACAATATATATATTACA stands 10.6 ± 0.55; under “TTTTTTTTTTTGAAATGTACATTCCAAAAACTGATA [XGTACX_site1495]”, 10.7 ± 0.51.
Turning to “TATATATATATATATTTTTTTTTTTTATGCACATGG [CACACA_negctrl_site1573]”, the “gcPBM binding intensity (ln)” value came to 9.93 ± 0.41.
On to “TAATACCTATGGTATAGTACGTATTATTTTATAGAG [XGTACX_site2078]”, for which the “gcPBM binding intensity (ln)” value was 11.2 ± 0.68.
Under “CTTTTGAACAGTTCATGTACTCAATTTTTTAATAGT [XGTACX_site6498]” stands 11.4 ± 0.94; under “ATGATTTCATTTGAGAGTACGTAAAAATAATACGTA [XGTACX_site4958]”, 11.3 ± 0.91; under “TATTTTTATTGGTACTGTACCTATTTAGAAATACAT [XGTACX_site6663]”, 11.5 ± 0.81.
Under “TATTTATAAAAAAATACATGCATTTTTTTTTTTTTT [TGCATGCA_site65]” stands 9.825 ± 0.064.
In the case of “TGTTAATTCTTAAGAATTTCCATAATTTCTTCTTTT [CACACA_negctrl_site1065]” it was 9.66 ± 0.042.
“TTTGCCATATGACACACACACATGTAAACCCCCTTT [CACACA_site6873]”: the “gcPBM binding intensity (ln)” value came out at 10.7 ± 0.55.
In the case of “TAATACAAAAACAATGTTCTTTCAAACATAAACATA [CACACA_negctrl_site1628]” it was 9.77 ± 0.17; in that of “ACATTCTATATATACACACATACATAATAAAGAAAG [CACACA_site2771]”, 10.1 ± 0.13; in that of “AAATAATAAAACAACACACAAATAGTTAAAATAGAA [CACACA_site5007]”, 9.91 ± 0.15.
For “ATATAATGATGGAAAAGAAAAGAAATAAAAAAAAAA [CACACA_negctrl_site1170]”, the “gcPBM binding intensity (ln)” value amounted to 9.61 ± 0.17.
On to “TTTTAATGATATATGAGTACACATTGTTTTTTATAA [XGTACX_site1072]”, for which the “gcPBM binding intensity (ln)” value was 11.6 ± 1.
Under “AATAAAAAAAAACTCATGCACACAATATTATGAAAA [CACACA_site664]” stands 9.975 ± 0.007.
For the sequence “AGAGAAAGAAGGGAGAAAAAATAAAATAAAATAAAA [GTGCAC_negctrl_site299]”, the “gcPBM binding intensity (ln)” value is 9.63 ± 0.2.
For the sequence “AAAAATTACAAATACAAACACACAAATGTTTTTCAT [CACACA_site3551]”, the “gcPBM binding intensity (ln)” value amounted to 9.71 ± 0.13.
Under “AATAAAATAAATATATGTACATATATATAACCATTA [XGTACX_site5549]” stands 11.1 ± 0.54; under “CATATATAGATATATACACACATACATACATACATA [CACACA_site7748]”, 10 ± 0.13; under “TGCATATGCATTATTTGTACATATGTAGATAATTAT [XGTACX_site6930]”, 10.8 ± 0.47.
As to “AATACATGAATATGTAGTACAGAAAAAAAAAATATA [XGTACX_site1945]”, the “gcPBM binding intensity (ln)” value was determined as 11.7 ± 0.95.
Under “AAAATGACATAATGGGGAATAGACATATACATAAAT [CACACA_negctrl_site1669]” stands 9.91 ± 0.099; under “GTTACAGAGAATGTTGTGCACATATCAATAATATAT [GTGCAC_site9671]”, 10.5 ± 0.28; under “CCACATTAAAAAAAAACACACATATATTATATATAT [CACACA_site1155]”, 9.76 ± 0.11.
In the case of “AATTAATTAAATTAATGTACACATATATTTGTATTC [XGTACX_site2341]” it was 11.3 ± 0.79; in that of “TATATATATATATATATTTTAAATGATATAAATGGT [TGCATGCA_negctrl_site152]”, 10.2 ± 0.53.
In the case of “TAGAAAGAATATAATTGTACAAATGTTGATAGATAA [XGTACX_site7259]” it was 10.7 ± 0.18; in that of “ATATATATATATATATATATATATGTTTGATTTTTT [XGTACX_negctrl_site98]”, 9.88 ± 0.64; in that of “ATTTTTCTTTTATTAACACACATATAAATAAATACA [CACACA_site2876]”, 10.1 ± 0.2.
Regarding “AAATGGTAAGAAAATAAATAAAGTTCTACCACATAA [CACACA_negctrl_site1542]”, the “gcPBM binding intensity (ln)” value was determined as 10.05 ± 0.042.
